Experimental data reported in PubChem BioAssay (NCI).
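Interpolation was linear, between the two tested concentrations surrounding the appropriate level; five concentrations were tested over 48 hours in 96-well plates. Abbreviation: GI50, concentration required for 50% inhibition of growth.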 For part of its entries the source gives two or more results. They are shown here; other results are not. There may be further records. A record mostly stands for its own series of concentrations, which the source does not state; some values may only mark the edge of a range.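 The concentration for full growth arrest is given as TGI.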

What was measured:
Assay in all cases: DTP human tumour cell line panel, 48 h
[1] = test system: MOLT-4 leukemia
[2] = test system: K-562 leukemia
[3] = test system: SK-MEL-2 melanoma

Structure (SMILES) | TGI [1] | GI50 [2] | GI50 [3]
COc1cccc2c1C(=O)c1c(O)c3c(c(O)c1C2=O)C[C@@](O)(C(C)O)C[C@@H]3OC1CC(N)C(O)C(C)O1 (stereo partly drawn) | 467 nM and 7.09 µM | – | –
O=NN(CCCl)C(=O)NCCCl | – | 88.6 µM [1 test] and 277 nM [mean of 2 tests] | 33.4 µM and > 363 µM
